# Where “and” joins values, the source holds several entries; their conditions need not be identical. Equal entries are not always repeated. Among all 48,000 compounds or so, about 120 (0.25%) were called active. Roughly 4% stayed inconclusive and do not appear here. Calls come from the whole dose curve; as a rule, active = well fitted activation curve with a large enough effect; inconclusive = small, poorly fitted or top-dose-only effect, or another doubt; inactive = no such curve, though single readings can be large or run the other way. This is a selection; strong and weak results do not stand in their true shares. Where no call is shown, the source filed none.
# Experiment: Primary qHTS for Identification of Small Molecule Activators of Huntingtin-Antisense Promoter Activity; note: nearly all actives have a fitted effect of over 55% in size
# Conditions: HEK293 HTT-AS promoter firefly luciferase reporter, 24 h; activity change, positive = activation: at 57.5 µM (top of the series), percent change from vehicle, -100% = no light
# In short: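 HEK293 Fluc reporter, 2,500 cells/well, 24 h pre-culture; cpds up to 57.5 uM final, 24 h 37 degrees C; Dual-Glo, 10 min RT; normalized vehicle = 0%, zero RLU = -100%.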
# Potency is the fitted concentration of half-maximal effect.
Compound,"activity change, positive = activation",Potency
CC(C)(C)c1ccc(C(=O)Nc2ccc3nc(SCC(=O)N4CCCC4)sc3c2)cc1,inactive: -86%,–
COc1ccc(-c2c3c(=O)n(C)c(=O)n(C)c3c3n2-c2ccccc2NC3c2ccccc2OC)cc1 (configuration not stated),16.6%,–
OCCN1CCN(CCCN2c3ccccc3Sc3ccc(Cl)cc32)CC1,inactive: -20.2%,–
COc1cccc(CNC(=O)CCc2c(C)c3cc4c(C)coc4cc3oc2=O)c1,-8.56%,–
COc1ccccc1-c1cc(C(=O)Nc2c(C)nn(Cc3ccc(Cl)cc3)c2C)no1,-73.4%,–
COc1ccc(C=Cc2cc(OC)c(OC)c(OC)c2)cc1NC(=O)[C@H](N)CO,inactive: -37.3%,–
COc1ccc(-c2nc(CSCC(=O)N3CCN(c4ccc(OC)cc4)CC3)c(C)o2)cc1,inactive: -21.7%,–
COc1ccccc1N(CC(=O)NCCSCc1ccccc1Cl)S(C)(=O)=O,inactive: -29.1%,–
Cn1c(=O)n(C)c2cc(NS(=O)(=O)c3ccc(Br)cc3)c(NCc3ccccc3)cc21,38.6%,–
O=S(=O)(Nc1cccc(-c2ccc(N3CCCCC3)nn2)c1)c1cccc(F)c1,42.9%,–
COc1ccc(C2C(=O)N(C3CCC(C)CC3)CC(=O)N2CCc2ccccc2)cc1OC (configuration not stated),-12.6%,–
CCOC(=O)c1sc(NC(=O)c2cc(CC)on2)c(C(=O)OCC)c1C,2.48%,–
Cc1nc2ccn(Cc3ccco3)c(=O)c2cc1C(=O)N1CCN(c2ccccc2F)CC1,-11.7%,–
O=C(CC1C(=O)N(c2ccc(F)cc2)C(=O)N1Cc1cccnc1)Nc1ccc(F)cc1 (configuration not stated),-6.27%,–
Cc1cc(C)cc(NC(=O)CCc2c(C)nn(-c3ccc(N4CCCC4)nn3)c2C)c1,24.8%,–
COc1ccc(-c2cc(C(C)=O)c(C)n2CCC(=O)Nc2cc(C)ccc2OC)cc1,inactive: -21.8%,–
COc1ccccc1CCNC(=O)Cc1c(C)c2ccc(O)cc2oc1=O,-6.52%,–
COc1cccc(N2C(=O)C(CC(=O)Nc3cccc(F)c3)N(C(C)C)C2=O)c1 (configuration not stated),1.53%,–
COc1ccc(-c2nnc(Nc3ccc(OCC(N)=O)cc3)c3ccccc23)cc1,-21.4%,–
O=C(CCN1CCN(CCO)CC1)Nc1ccc(Br)cc1,-6.29%,–
COc1ccc(C)cc1NC(=O)c1cc2ccccn2n1,50.3%,–
COc1ccc(N2CCN(C(=O)COc3ccccc3C#N)CC2)cc1,3.66%,–
COc1ccc(-c2cc(C(=O)Nc3cc(C)nn3-c3ccccc3)no2)cc1OC,-8.15%,–
CC1Cc2cc(S(=O)(=O)NCc3ccc(Cl)cc3)ccc2N1C(=O)C1CCC1 (configuration not stated),-37.2%,–
O=C(NCc1ccccc1)c1nc(-c2ccc(Cl)cc2)n2c1CCCCC2,-21%,–

Compound,"activity change, positive = activation",Potency
Cc1ccccc1NC(=O)CCn1nc(-c2ccc(Cl)cc2)c2ccccc2c1=O,-8.83%,–
Cc1ccc(CN2C(=O)CN(C3CCCCCC3)C(=O)C2c2ccc(F)cc2)cc1 (configuration not stated),-21.5%,–
COc1cccc2cc(-c3nc4ccc(C)cc4[nH]3)c(=O)oc12,–,active: 316 nM
NNc1nncc2ccccc12,–,active: 2.24 µM and active: 7.69 µM
O=C(CSc1nnc2[nH]c(=O)cc(-c3ccccc3)n12)Nc1ccccc1C(F)(F)F,–,active: 11200 nM
Cc1ccc(SCCNC(=O)CN(c2cccc(C)c2C)S(C)(=O)=O)cc1,inactive: -38.1%,–
CCOC(=O)CCc1c(C)c2cc3c(c(C)c2oc1=O)OCN(CCc1ccccc1OC)C3,-22.7%,–
Cc1cc(N2CCN(C)CC2)nc2ccc(NC(=O)Nc3ccc(F)cc3)cc12,inactive: 9.22%,–
O=C(Nc1nc2nc(-c3ccccc3)cc(=O)n2[nH]1)c1ccc(F)cc1,inactive: -8.24%,–
Cc1ccc(C)c(OCCOCCn2c(-c3ccc(Br)cc3)nc3ccccc3c2=O)c1C,3.17%,–
CCOC(=O)c1cccc(NC(=O)CC(c2ccc(F)cc2)N2Cc3ccccc3C2=O)c1 (configuration not stated),11.4%,–
COc1ccc(Br)cc1CNC(=O)C1CCCCN1S(=O)(=O)c1ccc(F)cc1 (configuration not stated),-16.1%,–
Cc1ccc(Nc2nc3ccccc3c3nncn23)cc1C,-1.3%,–
N#C/C(=C\c1ccc(-c2cc(Cl)ccc2Cl)o1)C(=O)Nc1ccccc1C(=O)O,inactive: -4.12%,–
COc1cc(-c2nnc(SCCOc3ccc(C)c(Cl)c3)o2)cc(OC)c1OC,-3.63%,–
CCCS(=O)(=O)Nc1cc2c(cc1NCc1ccccc1)n(C)c(=O)n2C,44.2%,–
Cn1cnc2c(=O)oc3ccc(S(=O)(=O)N4CCN(c5cccc(Cl)c5)CC4)cc3c21,-2.22%,–
O=C(CSc1nc(-c2cccs2)nc2cc(=O)[nH]n12)Nc1ccc(F)cc1,-6.17%,–
CCOC(=O)c1c(N)n(-c2cccc(C)c2C)c2nc3ccccc3nc12,-2.57%,–
COc1ccc(S(=O)(=O)Nc2cccc(-c3ccc(N4CCCCCC4)nn3)c2)c(OC)c1,27.2%,–
O=C(CSc1nc(-c2cccs2)nc2cc(=O)[nH]n12)Nc1ccccc1Cl,-7.97%,–
Cc1ccccc1-c1noc(-c2nnn(-c3ccccc3C)c2N)n1,–,active: 708 nM
CCc1nn(CC(=O)NCCOC)c(=O)c2cc3cc(F)ccc3n12,3.3%,–
CNc1nc2c(c(=O)n(C)c(=O)n2C)n1CC(O)COc1ccc(OC)cc1 (configuration not stated),-29.1%,–
Cc1nc2ccn(Cc3ccco3)c(=O)c2cc1C(=O)N1CCN(c2ccc(F)cc2)CC1,-18.6%,–

Compound,"activity change, positive = activation",Potency
CCCOc1ccc(C2C(=O)N(C3CCCCCC3)CC(=O)N2CCC)cc1OC (configuration not stated),-24.6%,–
O=C1OC(C(=O)Nc2cc(C(F)(F)F)ccc2Cl)Cc2ccccc21 (configuration not stated),-10.4%,–
O=C(O)c1cc(-c2ccccc2)nc2ccccc12,"inactive: 15.2% [at 116 µM, percent change from vehicle, -100% = no light]",–
COc1ccc(-c2cc(C(=O)N3CCN(c4ccccc4)CC3)no2)cc1,13.6%,–
COc1ccc(OC)c(S(=O)(=O)N2CCC(n3c(C)nc4cccnc43)CC2)c1,-5.06%,–
CCc1ccc(CNC(=O)CCc2c(C)nn(-c3ccc(N4CCCC4)nn3)c2C)cc1,-21.5%,–
CCOc1ccccc1NC(=O)CCc1c(C)nn(-c2ccc(N3CCCCC3)nn2)c1C,-22.6%,–
Cc1ccc(-c2c3c(=O)n(C)c(=O)n(C)c3c3n2-c2ccccc2NC3c2ccc(C)cc2O)cc1 (configuration not stated),-32.5%,–
COc1ccc(N2CCN(C(=O)c3cc4c(=O)n(Cc5ccco5)ccc4nc3C)CC2)cc1,-23.7%,–
CCc1cccc(NS(=O)(=O)c2ccc3c(c2)CC(C)N3C(=O)C2CC2)c1 (configuration not stated),inactive: -78.9%,–
CCc1c(C)c2ccc(O)c(CN3CCN(c4ccc(F)cc4)CC3)c2oc1=O,-13.8%,–
CCOc1ccc(C2C(=O)N(C3CCCCC3)CC(=O)N2C2CCCC2)cc1OC (configuration not stated),-21.9%,–
CNC(=O)c1ccc(Nc2nnc(-c3ccc(C)c(S(=O)(=O)N4CCCCC4)c3)c3ccccc23)cc1,-9.24%,–
O=C1OC(C(=O)Nc2ccc(Cl)c(C(F)(F)F)c2)Cc2ccccc21 (configuration not stated),-14.7%,–
COc1ccc(N2CCN(c3nc4ccc(C)cc4n4nnnc34)CC2)cc1,2.11%,–
COc1ccc2c(c1)cc1c(=O)n(CC(=O)NCCCc3ccccc3)nc(C)n12,-5.14%,–
COc1ccc(CCNC(=O)CCc2c(C)c3cc4c(C)coc4c(C)c3oc2=O)cc1OC,inactive: -16.2%,–
CCOC(=O)C1CCCN(CCC(=O)Nc2cccc(C)c2)C1 (configuration not stated),-12%,–
COc1ccc(C2=C(Nc3ccc(C)c(C)c3)c3ccccc3C2=O)cc1,-22.5%,–
COc1cc(NC(=O)c2cc3ccccn3n2)cc(OC)c1OC,22.5%,–
Cc1nc2ccn(Cc3ccco3)c(=O)c2cc1C(=O)N1CCN(c2ccccc2)CC1,-1.77%,–
O=C(c1cc(-c2ccc(O)cc2)on1)N1CCN(c2ccccc2)CC1,-7.07%,–
COc1ccc(CN2COc3ccc4c(-c5ccccc5)cc(=O)oc4c3C2)cc1OC,-22%,–
Cn1c(=O)n(C)c2cc(N3CCCCC3)c(NC(=O)c3ccc(C(C)(C)C)cc3)cc21,3.86%,–
O=C(NCC1CN(c2ccc(N3CCOCC3=O)cc2)C(=O)O1)c1ccc(Cl)s1 (configuration not stated),–,inactive

Compound,"activity change, positive = activation",Potency
CCOc1cc(CNC(=O)Cn2c(-c3cccs3)cc3cc(F)ccc32)ccc1OC,inactive: -29.4%,–
COc1ccc(S(=O)(=O)Nc2cc3c(cc2NCc2ccccc2)n(C)c(=O)n3C)cc1,35.2%,–
Cn1nnnc1SCCCNCc1cccc(OCc2ccccc2Cl)c1,inactive: -10.7%,–
COc1ccc(C2C(=O)N(C3CCC(C)CC3)CC(=O)N2CCC2=CCCCC2)cc1OC (configuration not stated),-7.15%,–
Cc1cc(Cl)ccc1NS(=O)(=O)c1ccc2c(c1)CC(C)N2C(=O)C1CCC1 (configuration not stated),-43.2%,–
COc1cccc(N2CCN(C(=O)c3cc4c(=O)n(Cc5ccco5)ccc4nc3C)CC2)c1,-10.6%,–
O=C(C1CCN(S(=O)(=O)Cc2ccccc2)CC1)N1CCN(c2cccc(Cl)c2)CC1,1.07%,–
CN(Cc1ccco1)S(=O)(=O)c1nnc(NC(=O)c2cccc(Cl)c2)s1,inactive: -8.37%,–
Cc1ccc(NC(=O)c2c(C)oc3ccc(O)c(CN4CCCCC4)c23)c(C)c1,-29.4%,–
COc1ccc(NC(=O)c2c(C)oc3ccc(O)c(CN4CCOCC4)c23)cc1,10.6%,–
COc1cccc(CNC(=O)CCS(=O)(=O)c2ccc3c(c2)CC(C)N3C(=O)C2CC2)c1 (configuration not stated),-17%,–
Cc1ccc(C)c(Nc2nnc(-c3ccc(C)c(S(=O)(=O)N4CCCCC4)c3)c3ccccc23)c1,-27.7%,–
O=C(NCCc1ccccc1)c1cc(-c2ccc(Cl)c(Cl)c2)on1,-5.05%,–
Cc1c(CC(=O)NCc2ccccc2Cl)c(=O)oc2cc(O)ccc12,3.03%,–
COc1ccc(-c2cc(C(=O)Nc3c(C)n(C)n(-c4ccccc4)c3=O)no2)cc1,-4.4%,–
O=C(NCCCc1nc2ccccc2n1Cc1ccccc1F)c1ccco1,-21.5%,–
COc1ccccc1Nc1nn2c(=O)c3ccc(C(=O)NCCc4ccccc4)cc3nc2s1,inactive: -73.3%,–
COc1ccc(S(=O)(=O)Nc2cccc(-c3ccc(N4CCCC4)nn3)c2)cc1F,5.81%,–
COc1cccc(N2CCN(C(=O)c3ccc4nc(N5CCC(C)CC5)sc4c3)CC2)c1,inactive: -63.7%,–
O=C(NCc1cccc(Br)c1)C1CCCCN1S(=O)(=O)c1ccc(F)cc1 (configuration not stated),-9.82%,–
COCC(=O)NCC=Cc1ccc2ncnc(Nc3ccc(Oc4ccc(C)nc4)c(C)c3)c2c1,inactive: -26.3%,–
COC(=O)CN1C(=O)CSc2ccc(S(=O)(=O)Nc3ccc(C)c(Cl)c3)cc21,-13.3%,–
